Binding data for 16 molecules are collected here from paper PMC3542376.

Protein sequences, listed by entry. Tags and fused reporters are not part of them. Lines headed by an entry give the natural chain unless they say otherwise; changes in a name come on top. Chains listed by the source or under a name are the forms on record and can include a tag or linker.
GST-HMGA1b (P17096, form named): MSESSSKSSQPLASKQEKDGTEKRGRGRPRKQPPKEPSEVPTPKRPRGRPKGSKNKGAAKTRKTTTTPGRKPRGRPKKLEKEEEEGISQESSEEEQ
UniProt Q13885: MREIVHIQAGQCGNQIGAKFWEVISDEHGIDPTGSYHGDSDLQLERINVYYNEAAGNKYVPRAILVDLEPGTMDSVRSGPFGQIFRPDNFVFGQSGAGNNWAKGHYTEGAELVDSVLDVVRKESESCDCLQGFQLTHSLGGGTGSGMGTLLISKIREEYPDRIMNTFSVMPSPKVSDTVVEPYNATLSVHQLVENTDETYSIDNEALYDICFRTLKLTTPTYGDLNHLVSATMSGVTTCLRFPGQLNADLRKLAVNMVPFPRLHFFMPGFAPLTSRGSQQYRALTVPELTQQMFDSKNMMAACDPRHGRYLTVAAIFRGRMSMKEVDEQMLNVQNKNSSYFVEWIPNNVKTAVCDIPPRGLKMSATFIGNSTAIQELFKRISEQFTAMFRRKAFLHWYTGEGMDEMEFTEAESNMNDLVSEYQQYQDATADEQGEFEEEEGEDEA
UniProt Q9Y483: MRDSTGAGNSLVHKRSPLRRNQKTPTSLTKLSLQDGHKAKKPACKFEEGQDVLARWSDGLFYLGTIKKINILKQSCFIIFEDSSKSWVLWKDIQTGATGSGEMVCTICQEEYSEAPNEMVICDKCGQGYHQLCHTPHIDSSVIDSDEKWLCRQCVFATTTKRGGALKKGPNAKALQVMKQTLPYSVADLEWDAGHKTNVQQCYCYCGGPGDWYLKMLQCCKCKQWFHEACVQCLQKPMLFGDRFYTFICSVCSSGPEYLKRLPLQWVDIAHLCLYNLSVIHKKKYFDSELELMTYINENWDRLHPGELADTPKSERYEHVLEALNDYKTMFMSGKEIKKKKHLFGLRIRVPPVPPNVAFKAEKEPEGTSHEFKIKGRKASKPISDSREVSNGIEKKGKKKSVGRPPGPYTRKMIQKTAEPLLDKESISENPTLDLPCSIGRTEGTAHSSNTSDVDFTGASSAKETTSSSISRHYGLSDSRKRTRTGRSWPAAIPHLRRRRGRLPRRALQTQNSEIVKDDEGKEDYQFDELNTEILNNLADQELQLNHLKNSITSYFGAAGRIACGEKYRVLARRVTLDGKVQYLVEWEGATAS
UniProt P50750: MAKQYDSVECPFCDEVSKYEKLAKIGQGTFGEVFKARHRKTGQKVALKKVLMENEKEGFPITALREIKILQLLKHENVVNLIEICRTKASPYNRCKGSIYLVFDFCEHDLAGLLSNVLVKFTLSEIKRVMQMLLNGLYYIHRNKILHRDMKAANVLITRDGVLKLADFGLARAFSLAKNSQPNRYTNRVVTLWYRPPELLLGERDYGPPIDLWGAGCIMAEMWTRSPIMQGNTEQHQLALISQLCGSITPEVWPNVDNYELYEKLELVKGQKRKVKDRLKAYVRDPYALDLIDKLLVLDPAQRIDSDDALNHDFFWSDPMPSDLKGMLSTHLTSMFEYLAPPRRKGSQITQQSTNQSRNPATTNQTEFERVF
UniProt Q9UNS2: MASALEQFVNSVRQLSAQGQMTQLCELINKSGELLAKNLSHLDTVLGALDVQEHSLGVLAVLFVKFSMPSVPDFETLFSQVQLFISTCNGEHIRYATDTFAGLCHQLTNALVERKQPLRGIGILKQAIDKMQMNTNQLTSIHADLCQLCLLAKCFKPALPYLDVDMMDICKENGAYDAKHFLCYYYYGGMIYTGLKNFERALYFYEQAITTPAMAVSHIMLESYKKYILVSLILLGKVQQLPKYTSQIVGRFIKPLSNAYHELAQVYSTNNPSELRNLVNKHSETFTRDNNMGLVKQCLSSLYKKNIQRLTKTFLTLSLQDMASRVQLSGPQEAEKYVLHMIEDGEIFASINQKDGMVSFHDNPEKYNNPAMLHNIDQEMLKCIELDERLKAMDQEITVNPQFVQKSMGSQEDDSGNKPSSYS
UniProt P15531: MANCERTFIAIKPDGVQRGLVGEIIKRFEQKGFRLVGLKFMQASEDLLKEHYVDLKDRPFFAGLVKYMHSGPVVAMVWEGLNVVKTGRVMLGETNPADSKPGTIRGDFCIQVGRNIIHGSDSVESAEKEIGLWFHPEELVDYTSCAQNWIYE
UniProt P49773: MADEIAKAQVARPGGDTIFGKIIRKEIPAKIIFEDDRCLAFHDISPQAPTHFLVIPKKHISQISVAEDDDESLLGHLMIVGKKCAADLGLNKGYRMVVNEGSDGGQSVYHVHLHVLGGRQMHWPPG
UniProt Q15274: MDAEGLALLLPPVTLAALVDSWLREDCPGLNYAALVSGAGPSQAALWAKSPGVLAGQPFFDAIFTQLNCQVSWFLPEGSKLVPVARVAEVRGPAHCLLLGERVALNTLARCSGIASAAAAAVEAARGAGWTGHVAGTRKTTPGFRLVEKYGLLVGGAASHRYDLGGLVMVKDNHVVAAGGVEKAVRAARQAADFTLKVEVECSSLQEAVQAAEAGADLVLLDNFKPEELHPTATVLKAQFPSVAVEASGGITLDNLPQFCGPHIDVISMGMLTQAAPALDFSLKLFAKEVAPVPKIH
UniProt P07954: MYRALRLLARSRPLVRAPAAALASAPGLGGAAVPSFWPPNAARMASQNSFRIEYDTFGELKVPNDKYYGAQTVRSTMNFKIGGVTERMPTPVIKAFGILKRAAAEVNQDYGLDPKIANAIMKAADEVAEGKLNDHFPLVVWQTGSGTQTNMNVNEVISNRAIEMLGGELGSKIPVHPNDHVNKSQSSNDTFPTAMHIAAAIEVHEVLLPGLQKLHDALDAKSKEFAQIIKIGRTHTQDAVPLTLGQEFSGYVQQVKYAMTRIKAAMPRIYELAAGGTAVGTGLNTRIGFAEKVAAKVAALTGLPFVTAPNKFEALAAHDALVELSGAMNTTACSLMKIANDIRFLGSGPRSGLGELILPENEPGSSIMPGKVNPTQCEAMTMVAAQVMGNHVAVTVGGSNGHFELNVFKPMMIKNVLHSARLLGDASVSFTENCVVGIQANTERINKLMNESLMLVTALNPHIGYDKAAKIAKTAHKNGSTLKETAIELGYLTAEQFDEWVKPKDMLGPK
UniProt P02792: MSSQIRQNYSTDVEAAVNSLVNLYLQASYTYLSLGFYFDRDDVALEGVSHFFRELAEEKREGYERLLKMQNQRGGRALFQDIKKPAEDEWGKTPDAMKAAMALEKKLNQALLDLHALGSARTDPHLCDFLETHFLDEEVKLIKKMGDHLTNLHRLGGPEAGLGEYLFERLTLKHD

These are yes or no findings as the source states them, for the method shown. For some of these results: Binding seen in cells or lysates may run through a third protein. Some binding calls cover weakened binding; strength is not graded here. For some of these results: Tags and fused reporters may be left off the sequences shown.

One assay addresses MBP-PRMT6 (human) (UniProt Q96LA8). Briefly: co-affinity purification; MBP-PRMT6 and HA-tagged partner co-transfected in HEK293T; native lysis; amylose resin; western blot with anti-HA. A general note: In western blotting, separated proteins are transferred to a membrane and probed.
The next assay addresses GST-PRMT6 (human) (UniProt Q96LA8). Briefly: pull-down; GST fusion protein as bait; 35S-methionine labelled in vitro translated HA-tagged partner; fluorography; input 20%; only the target purified.
The next assay has as its target GST-HMGA1b (UniProt P17096). The assay is described as above.
In assay [1] the target is PRMT6 1-86, LexA fusion (human) (UniProt Q96LA8). Briefly: two-hybrid; pairwise mapping: EGY48 with LexA-PRMT6 full length or deletion mutants and each partner in pJG4-5; assayed as in the screen.
Assay [2] concerns the target PRMT6 full length (aa 1-375), LexA fusion (human) (UniProt Q96LA8). The description is as above.
Assay [3] has as its target PRMT6 87-375, LexA fusion (human) (UniProt Q96LA8). The assay is described as above.
Assay [4] concerns the target PRMT6 185-375, LexA fusion (human) (UniProt Q96LA8). Described as above.
Assay [5] addresses PRMT6 1-184, LexA fusion (human) (UniProt Q96LA8). Described as above.
Assay [6] deals with PRMT6 full length (aa 1-375), LexA fusion (human) (UniProt Q96LA8). The assay is described as follows: two-hybrid; library screen: LexA-PRMT6 (aa 1-375) as bait in S. cerevisiae EGY48, human fetal brain cDNA library in pJG4-5 as prey; Leu+ and beta-galactosidase filter assay; positives re-transformed and confirmed.

On to “TUBB2A, HA-tagged, in HEK293T (from UniProt Q13885 1-445)”, for which, in the assay with MBP-PRMT6 (human), the binding entry was “binds”.
As to “MTF2, HA-tagged, in HEK293T (from UniProt Q9Y483 1-593)”, the binding result with MBP-PRMT6 (human) is “binds”.
Regarding “CDK9, HA-tagged, in vitro translated (from UniProt P50750 1-372)”, the binding entry is listed as “binds” with GST-PRMT6 (human) and “no binding” with GST-HMGA1b.
For “COPS3, HA-tagged, in vitro translated (from UniProt Q9UNS2 1-423)”, the binding result with GST-PRMT6 (human) and with GST-HMGA1b was “binds” in each case.
On to “Nm23-H1, HA-tagged, in vitro translated (from UniProt P15531 1-152)”, for which, in the assay with GST-HMGA1b, the binding result is reported as “no binding”.
For “HSJ-2, HA-tagged, in vitro translated (from UniProt P31689 1-397)”, the binding result in the assay with GST-PRMT6 (human) and with GST-HMGA1b was “binds” each time.
Take “Hint1, HA-tagged, in vitro translated (from UniProt P49773 1-126)”: the binding result is given as “binds” in the assay with GST-PRMT6 (human) and “no binding” in the assay with GST-HMGA1b.
As to “QPRT, HA-tagged, in vitro translated (from UniProt Q15274 1-297)”, the binding entry in the assay with GST-HMGA1b is recorded as “no binding”.
“HSJ-2, HA-tagged, in HEK293T (from UniProt P31689 1-397)”: the binding result with MBP-PRMT6 (human) is recorded as “binds”.
On to “TUBB2A, HA-tagged, in vitro translated (from UniProt Q13885 1-445)”, for which the binding entry with GST-PRMT6 (human) is reported as “binds”; with GST-HMGA1b, “no binding”.
The matching figures for “FH, HA-tagged, in vitro translated (from UniProt P07954 1-510)”: “binds” and “no binding”.
Consider “FtL, HA-tagged, in vitro translated (from UniProt P02792 1-175)”, for which the binding result is “binds” in the assay with GST-PRMT6 (human) and “no binding” in the assay with GST-HMGA1b.

B1: PTS, HA-tagged, in HEK293T (protein, UniProt Q03393 1-145)
chain: MSTEGGGRRCQAQVSRRISFSASHRLYSKFLSDEENLKLFGKCNNPNGHGHNYKVVVTVHGEIDPATGMVMNLADLKKYMEEAIMQPLDHKNLDMDVPYFADVVSTTENVAVYIWDNLQKVLPVGVLYKVKVYETDNNIVVYKGE
For B1, the binding result with MBP-PRMT6 (human) is reported as “binds”.

B2: NOB1, HA-tagged, in HEK293T (protein, UniProt Q9ULX3 1-412)
chain: MAPVEHVVADAGAFLRHAALQDIGKNIYTIREVVTEIRDKATRRRLAVLPYELRFKEPLPEYVRLVTEFSKKTGDYPSLSATDIQVLALTYQLEAEFVGVSHLKQEPQKVKVSSSIQHPETPLHISGFHLPYKPKPPQETEKGHSACEPENLEFSSFMFWRNPLPNIDHELQELLIDRGEDVPSEEEEEEENGFEDRKDDSDDDGGGWITPSNIKQIQQELEQCDVPEDVRVGCLTTDFAMQNVLLQMGLHVLAVNGMLIREARSYILRCHGCFKTTSDMSRVFCSHCGNKTLKKVSVTVSDDGTLHMHFSRNPKVLNPRGLRYSLPTPKGGKYAINPHLTEDQRFPQLRLSQKARQKTNVFAPDYIAGVSPFVENDISSRSATLQVRDSTLGAGRRRLNPNASRKKFVKKR
On to B2, for which the binding result in the assay with MBP-PRMT6 (human) is “binds”.

B3: UTP6 (protein, UniProt Q9NYH9 1-597)
chain: MAEIIQERIEDRLPELEQLERIGLFSHAEIKAIIKKASDLEYKIQRRTLFKEDFINYVQYEINLLELIQRRRTRIGYSFKKDEIENSIVHRVQGVFQRASAKWKDDVQLWLSYVAFCKKWATKTRLSKVFSAMLAIHSNKPALWIMAAKWEMEDRLSSESARQLFLRALRFHPECPKLYKEYFRMELMHAEKLRKEKEEFEKASMDVENPDYSEEILKGELAWIIYKNSVSIIKGAEFHVSLLSIAQLFDFAKDLQKEIYDDLQALHTDDPLTWDYVARRELEIESQTEEQPTTKQAKAVEVGRKEERCCAVYEEAVKTLPTEAMWKCYITFCLERFTKKSNSGFLRGKRLERTMTVFRKAHELKLLSECQYKQLSVSLLCYNFLREALEVAVAGTELFRDSGTMWQLKLQVLIESKSPDIAMLFEEAFVHLKPQVCLPLWISWAEWSEGAKSQEDTEAVFKKALLAVIGADSVTLKNKYLDWAYRSGGYKKARAVFKSLQESRPFSVDFFRKMIQFEKEQESCNMANIREYYERALREFGSADSDLWMDYMKEELNHPLGRPENCGQIYWRAMKMLQGESAEAFVAKHAMHQTGHL
On to B3, for which the binding result in [1] was “binds”; in assay [2], “binds”; in assay [3], “no binding”; in assay [4], “no binding”; in assay [5] it was “binds”; in assay [6] it was “binds”.

B4: CASP6, HA-tagged, in HEK293T (protein, UniProt P55212 1-293)
chain: MSSASGLRRGHPAGGEENMTETDAFYKREMFDPAEKYKMDHRRRGIALIFNHERFFWHLTLPERRGTCADRDNLTRRFSDLGFEVKCFNDLKAEELLLKIHEVSTVSHADADCFVCVFLSHGEGNHIYAYDAKIEIQTLTGLFKGDKCHSLVGKPKIFIIQACRGNQHDVPVIPLDVVDNQTEKLDTNITEVDAASVYTLPAGADFLMCYSVAEGYYSHRETVNGSWYIQDLCEMLGKYGSSLEFTELLTLVNRKVSQRRVDFCKDPSAIGKKQVPCFASMLTKKLHFFPKSN
With B4, in the assay with MBP-PRMT6 (human), the binding result was “binds”.
